{"source": "patent US20220380476A1", "about": "“Use of an anti-CCR7 antibody in combination therapies with a BTK inhibitor and/or BCL2- inhibitor for treating hematological malignancies” (Catapult Therapeutics B.V., priority 2019, published 2022)", "molecules": {"B1": {"name": "CAP-100: humanized anti-CCR7 antibody: heavy chain variable domain SEQ ID NO: 4, light chain variable domain SEQ ID NO: 5, heavy chain constant region SEQ ID NO: 10 (antibody)", "VH": "EVQLLESGGGFVKPGGSLKLSCVVSGLTFRDFAMSWVRQTPEKRLVWVATISSGGFYTYYPDSVKGRFTISRDNVRNILYLQMSSLRSEDTAVYYCVRRAYRYDGTGDYSALDYWGTGTTVTVSS", "VL": "DIQMTQSPSSLSASVGDRVTITCRASQDIGPSLNWYQQKPGKAPKRLIYATSNLDSGVPSRFSGSGSGTDFTLTISSLQPEDFATYYCLQFASSPLTFGQGTKVEIK", "chain": "[human IgG1 constant region with changes omitted]", "modifications": "light chain constant region not cited; Humanized VH1 domain; Humanized VK1 domain; synthetic heavy chain constant region of the human allotype G1m (17,1) with a E333A substitution"}}, "key": {"[1]": {"tested_on": "CCR7", "assay": "Chemotaxis assay (migration) of CLL cells towards CCL19 or CCL21 in Transwell chambers", "type": "cell-based, human", "procedure": "PBMCs were isolated by centrifugation on Biocoll Separating Solution density gradient centrifugation (Merck Millipore). PBMC were washed twice with saline solution (Fresenius) and centrifugated at 1200 for 10 minutes. Cells were suspended in RPMI 1640 media (GIBCO) supplemented with 0.1% bovine serum albumin (BSA) at a concentration of 5×10^6 cells/ml. […] Chemotaxis was performed in Transwell chambers (6.5-mm diameter, 10-μm thickens, 5-μm diameter pore size, Costar). Only samples from patients with >90% of tumour cells were included. A total of 5×10^5 cells suspended in RPMI-1640, 0.1% BSA were loaded in the upper chamber and chemokines CCL19 or CCL21 (1 μg/ml, Peprotech) were added to the lower well. After 4 hours at 37° C. 5% CO2, cells in the lower chamber were collected, and stained with anti-CD3-PE (BD Biosciences) and anti-CD5-APC (BD Biosciencies). The migrated cells were counted for 60 seconds in a BD FACSCanto™ II flow cytometer. The percentage of migrated cells (% of input) was calculated according to the following formula: 100×(number of cells in the lower chamber/number of cells loaded in the upper chamber). Once the % of input was calculated, the % of inhibition was estimated by means the following formula: % of inhibition=[(% input without mAb−% input with mAb)×100]/[% input without mAb]. In addition, results are shown as the % of input relative to the maximum effect mediated by each chemokines (CK) which was calculated according to: %input rel. to CK=100×(% input/% input with CK)."}, "[2]": {"tested_on": "CLL cells", "assay": "Antibody-dependent cell-mediated cytotoxicity (ADCC) against CLL cells", "type": "cell-based, human", "details": "E:T 10:1", "procedure": "ADCC assays were performed as described in SR-HPM-1026. Briefly: target tumour cells were incubated with media alone (RPMI+10% FBS) or in the presence of IC, rituximab, alemtuzumab, or CAP-100 antibodies, at different final concentrations, at 37° C. for 30 min. Unbound antibody was washed off (1800 rpm, 2 minutes/twice) and the cells plated at 10^5 cells/well in p96 U-bottom plates. Human PBMCs from healthy donors were obtained by ficoll density gradient centrifugation. Effector cells were labelled with calcein-UV Cell Tracker (Invitrogen) according to the manufacturer's protocol, and stimulated with recombinant human IL-2 (500 UI/ml, StemCell Technologies). Different effector:target (E:T) ratios were used [10:1 for dose-response assays, and (5:1, 25:1, 50:1) for E:T assays]. After 6 hours, cells were stained with 7AAD, CD3-PE and CD5-APC and analysed by flow cytometry. The percentage of specific lysis in Cell-TrackerCD5^+CD3^− CLL cells was determined by incorporation of 7-AAD (BD Pharmingen) and calculated according to the following formula: % Specific Lysis=100×(ER−SR)/(MR−SR). ER, SR, and MR represent experimental, spontaneous and maximum cell death."}}, "note": "Entries after “also recorded” stand apart in the source; their conditions may differ."}
{"molecule": "B1", "values": [{"measurement": "inhibitory (neutralizing) activity on CCR7-mediated migration", "setting": "[1]; CLL cells from one patient on venetoclax and one ibrutinib patient, 0.01-100 μg/ml", "result": "neutralizes; also recorded: clear dose-response inhibitory activity"}, {"measurement": "migration indices towards CCL19 or CCL21", "setting": "[1]; CLL cells from venetoclax or ibrutinib patient, 10 or 100 μg/ml of antibody", "result": "reached basal levels"}, {"measurement": "effect of single agent on migration induced by CCR7 ligands", "setting": "[1]; naïve CLL cells (n=5), ibrutinib 0.1 μM, CAP-100 10 μg/ml", "result": "reduction of migration to basal levels"}, {"measurement": "ADCC activity (specific lysis)", "setting": "[2]; CLL cells from patients on ibrutinib, zanabrutinib, venetoclax or ibrutinib R/R, PBMC effectors", "result": "potent ADCC activity"}, {"measurement": "ADCC activity compared with rituximab", "setting": "[2]; same four groups of patients", "result": "outperformed rituximab"}]}
